Measured values reported in PMC6760808.
These are yes or no findings as the source states them, for the method shown. Some results given as binding are weak or reduced against the parent protein; the word gives no strength. Each block holds one binder with its values, some of them ahead of it.

Protein sequences, listed by entry. Tags and fused reporters are not part of them.
UniProt Q68CZ1: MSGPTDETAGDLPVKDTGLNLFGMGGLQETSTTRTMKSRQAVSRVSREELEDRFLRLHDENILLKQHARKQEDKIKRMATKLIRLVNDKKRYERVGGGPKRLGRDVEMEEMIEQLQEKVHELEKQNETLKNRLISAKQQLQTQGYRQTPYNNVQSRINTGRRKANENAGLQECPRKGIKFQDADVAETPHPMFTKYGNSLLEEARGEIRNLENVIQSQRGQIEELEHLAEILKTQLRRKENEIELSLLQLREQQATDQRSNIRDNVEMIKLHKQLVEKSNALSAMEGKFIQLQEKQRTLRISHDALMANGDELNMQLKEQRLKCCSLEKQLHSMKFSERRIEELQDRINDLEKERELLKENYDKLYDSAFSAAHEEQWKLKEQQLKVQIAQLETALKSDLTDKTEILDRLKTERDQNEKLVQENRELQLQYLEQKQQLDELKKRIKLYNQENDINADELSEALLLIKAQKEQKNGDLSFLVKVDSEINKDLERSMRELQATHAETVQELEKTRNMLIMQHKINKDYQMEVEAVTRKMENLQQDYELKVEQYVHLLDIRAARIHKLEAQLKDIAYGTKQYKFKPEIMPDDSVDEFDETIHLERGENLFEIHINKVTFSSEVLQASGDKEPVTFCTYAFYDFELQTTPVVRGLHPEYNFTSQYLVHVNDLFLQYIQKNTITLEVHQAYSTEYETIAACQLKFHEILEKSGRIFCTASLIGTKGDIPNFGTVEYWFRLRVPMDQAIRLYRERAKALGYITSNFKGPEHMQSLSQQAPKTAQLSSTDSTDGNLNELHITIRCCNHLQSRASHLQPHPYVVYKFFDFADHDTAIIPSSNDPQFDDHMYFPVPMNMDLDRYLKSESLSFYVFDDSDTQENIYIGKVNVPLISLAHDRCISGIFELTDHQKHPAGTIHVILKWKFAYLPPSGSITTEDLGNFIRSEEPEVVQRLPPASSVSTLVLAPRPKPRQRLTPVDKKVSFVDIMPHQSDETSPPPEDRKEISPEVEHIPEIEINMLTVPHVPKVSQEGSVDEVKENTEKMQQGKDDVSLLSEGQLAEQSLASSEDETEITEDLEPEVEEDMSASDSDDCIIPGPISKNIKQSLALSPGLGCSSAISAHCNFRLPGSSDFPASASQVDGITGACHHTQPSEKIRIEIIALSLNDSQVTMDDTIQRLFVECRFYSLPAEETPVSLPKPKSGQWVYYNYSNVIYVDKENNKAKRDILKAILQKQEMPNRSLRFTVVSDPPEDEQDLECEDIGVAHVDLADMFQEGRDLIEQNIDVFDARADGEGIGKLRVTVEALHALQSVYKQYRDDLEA
UniProt Q7Z494: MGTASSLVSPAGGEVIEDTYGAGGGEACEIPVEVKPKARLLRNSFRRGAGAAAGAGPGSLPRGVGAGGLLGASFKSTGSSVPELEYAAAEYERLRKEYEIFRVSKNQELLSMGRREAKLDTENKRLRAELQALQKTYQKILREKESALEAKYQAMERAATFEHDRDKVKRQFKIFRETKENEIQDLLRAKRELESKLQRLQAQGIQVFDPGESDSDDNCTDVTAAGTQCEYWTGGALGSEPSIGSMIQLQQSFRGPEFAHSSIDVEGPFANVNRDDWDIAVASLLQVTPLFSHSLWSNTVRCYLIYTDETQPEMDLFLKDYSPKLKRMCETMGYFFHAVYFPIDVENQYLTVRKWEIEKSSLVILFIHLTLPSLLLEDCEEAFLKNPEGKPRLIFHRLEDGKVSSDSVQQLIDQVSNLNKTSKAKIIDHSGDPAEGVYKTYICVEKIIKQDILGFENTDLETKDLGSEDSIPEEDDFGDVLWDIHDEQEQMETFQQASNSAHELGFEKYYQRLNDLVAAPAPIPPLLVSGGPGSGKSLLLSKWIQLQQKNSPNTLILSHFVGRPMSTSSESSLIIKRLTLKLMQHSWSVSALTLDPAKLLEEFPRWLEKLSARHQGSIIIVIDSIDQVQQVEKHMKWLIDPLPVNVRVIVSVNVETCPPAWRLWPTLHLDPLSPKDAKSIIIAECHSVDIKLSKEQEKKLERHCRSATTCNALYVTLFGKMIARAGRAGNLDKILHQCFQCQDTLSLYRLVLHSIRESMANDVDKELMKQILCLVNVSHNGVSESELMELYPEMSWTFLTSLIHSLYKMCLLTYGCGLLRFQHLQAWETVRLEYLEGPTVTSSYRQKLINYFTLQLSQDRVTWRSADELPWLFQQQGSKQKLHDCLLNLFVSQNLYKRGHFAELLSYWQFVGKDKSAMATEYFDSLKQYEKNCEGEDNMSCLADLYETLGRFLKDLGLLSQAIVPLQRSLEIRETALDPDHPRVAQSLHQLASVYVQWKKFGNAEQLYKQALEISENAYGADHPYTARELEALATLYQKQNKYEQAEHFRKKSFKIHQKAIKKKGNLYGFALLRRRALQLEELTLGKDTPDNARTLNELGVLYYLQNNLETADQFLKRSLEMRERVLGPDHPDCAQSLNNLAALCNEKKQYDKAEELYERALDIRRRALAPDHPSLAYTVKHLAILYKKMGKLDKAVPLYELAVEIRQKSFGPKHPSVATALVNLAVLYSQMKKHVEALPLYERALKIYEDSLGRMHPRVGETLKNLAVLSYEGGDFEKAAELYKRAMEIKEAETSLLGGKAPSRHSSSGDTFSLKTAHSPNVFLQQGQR

How the values were obtained:
Experiment in all cases: two-hybrid; directed yeast two-hybrid by mating: AH109 with pGBKT7 (BD, bait) fusions x Y187 with pACT2 (AD, prey) fusions; growth on -leu,-trp,-his plates scored as strong, medium or weak; each mating repeated at least three times
NPHP8 (RPGRIP1L) (human) = NPHP8 (RPGRIP1L) (human) (UniProt Q68CZ1)
NPHP3 (human) = NPHP3 (human) (UniProt Q7Z494)
NPHP2 (inversin) = target: T1, NPHP2 (inversin) (UniProt Q9Y283)
T1 sequence: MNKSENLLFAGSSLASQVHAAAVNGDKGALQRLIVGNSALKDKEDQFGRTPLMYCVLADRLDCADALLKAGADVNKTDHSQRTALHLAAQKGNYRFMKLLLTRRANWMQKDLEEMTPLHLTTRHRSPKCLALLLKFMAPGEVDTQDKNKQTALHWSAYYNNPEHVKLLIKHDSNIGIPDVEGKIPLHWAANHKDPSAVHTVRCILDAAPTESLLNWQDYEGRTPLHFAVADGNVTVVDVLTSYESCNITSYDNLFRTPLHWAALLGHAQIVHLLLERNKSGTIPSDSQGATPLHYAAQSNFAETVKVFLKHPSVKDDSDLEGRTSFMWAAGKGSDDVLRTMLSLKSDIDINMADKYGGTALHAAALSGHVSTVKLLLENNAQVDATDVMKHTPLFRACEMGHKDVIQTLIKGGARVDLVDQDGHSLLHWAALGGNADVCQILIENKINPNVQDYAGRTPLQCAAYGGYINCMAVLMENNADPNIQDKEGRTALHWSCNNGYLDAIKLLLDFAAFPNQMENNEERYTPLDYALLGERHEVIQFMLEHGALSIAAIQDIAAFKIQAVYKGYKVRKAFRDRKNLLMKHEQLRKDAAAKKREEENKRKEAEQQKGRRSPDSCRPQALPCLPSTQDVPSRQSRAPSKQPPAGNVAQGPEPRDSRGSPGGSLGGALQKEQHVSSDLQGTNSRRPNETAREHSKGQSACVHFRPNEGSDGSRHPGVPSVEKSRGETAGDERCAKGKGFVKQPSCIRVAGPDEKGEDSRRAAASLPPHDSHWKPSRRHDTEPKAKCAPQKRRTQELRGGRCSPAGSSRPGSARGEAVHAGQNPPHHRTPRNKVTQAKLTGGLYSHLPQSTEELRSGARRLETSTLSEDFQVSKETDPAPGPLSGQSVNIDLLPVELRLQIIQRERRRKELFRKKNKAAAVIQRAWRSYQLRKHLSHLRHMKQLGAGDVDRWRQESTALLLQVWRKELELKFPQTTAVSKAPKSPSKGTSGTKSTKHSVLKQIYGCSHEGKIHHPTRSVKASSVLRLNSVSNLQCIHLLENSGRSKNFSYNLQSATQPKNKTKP

binding (NPHP8 (RPGRIP1L) (human)): binds
binding (NPHP3 (human)): binds weakly
binding (NPHP2 (inversin)): binds
B1: Nup160 (protein, UniProt Q12769 1-1436)
chain: MLHLSAAPPAPPPEVTATARPCLCSVGRRGDGGKMAAAGALERSFVELSGAERERPRHFREFTVCSIGTANAVAGAVKYSESAGGFYYVESGKLFSVTRNRFIHWKTSGDTLELMEESLDINLLNNAIRLKFQNCSVLPGGVYVSETQNRVIILMLTNQTVHRLLLPHPSRMYRSELVVDSQMQSIFTDIGKVDFTDPCNYQLIPAVPGISPNSTASTAWLSSDGEALFALPCASGGIFVLKLPPYDIPGMVSVVELKQSSVMQRLLTGWMPTAIRGDQSPSDRPLSLAVHCVEHDAFIFALCQDHKLRMWSYKEQMCLMVADMLEYVPVKKDLRLTAGTGHKLRLAYSPTMGLYLGIYMHAPKRGQFCIFQLVSTESNRYSLDHISSLFTSQETLIDFALTSTDIWALWHDAENQTVVKYINFEHNVAGQWNPVFMQPLPEEEIVIRDDQDPREMYLQSLFTPGQFTNEALCKALQIFCRGTERNLDLSWSELKKEVTLAVENELQGSVTEYEFSQEEFRNLQQEFWCKFYACCLQYQEALSHPLALHLNPHTNMVCLLKKGYLSFLIPSSLVDHLYLLPYENLLTEDETTISDDVDIARDVICLIKCLRLIEESVTVDMSVIMEMSCYNLQSPEKAAEQILEDMITIDVENVMEDICSKLQEIRNPIHAIGLLIREMDYETEVEMEKGFNPAQPLNIRMNLTQLYGSNTAGYIVCRGVHKIASTRFLICRDLLILQQLLMRLGDAVIWGTGQLFQAQQDLLHRTAPLLLSYYLIKWGSECLATDVPLDTLESNLQHLSVLELTDSGALMANRFVSSPQTIVELFFQEVARKHIISHLFSQPKAPLSQTGLNWPEMITAITSYLLQLLWPSNPGCLFLECLMGNCQYVQLQDYIQLLHPWCQVNVGSCRFMLGRCYLVTGEGQKALECFCQAASEVGKEEFLDRLIRSEDGEIVSTPRLQYYDKVLRLLDVIGLPELVIQLATSAITEAGDDWKSQATLRTCIFKHHLDLGHNSQAYEALTQIPDSSRQLDCLRQLVVVLCERSQLQDLVEFPYVNLHNEVVGIIESRARAVDLMTHNYYELLYAFHIYRHNYRKAGTVMFEYGMRLGREVRTLRGLEKQGNCYLAALNCLRLIRPEYAWIVQPVSGAVYDRPGASPKRNHDGECTAAPTNRQIEILELEDLEKECSLARIRLTLAQHDPSAVAVAGSSSAEEMVTLLVQAGLFDTAISLCQTFKLPLTPVFEGLAFKCIKLQFGGEAAQAEAWAWLAANQLSSVITTKESSATDEAWRLLSTYLERYKVQNNLYHHCVINKLLSHGVPLPNWLINSYKKVDAAELLRLYLNYDLLEEAVDLVSEYVDAVLGKGHQYFGIEFPLSATAPMVWLPYSSIDQLLQALGENSANSHNIALSQKILDKLEDYQQKVDKATRDLLYRRTL

binding (NPHP8 (RPGRIP1L) (human)): binds
binding (NPHP2 (inversin)): binds
B2: NPHP2 (inversin) (protein, UniProt Q9Y283 1-1065)
chain: T1 sequence

binding (NPHP8 (RPGRIP1L) (human)): binds
B3: Nup85 (protein, UniProt Q8R480 1-656)
chain: MEELDCEPAVTWIPGVNSKKKQMCFDWGPGEMLLCETSFNQTGKSEKVPSCPFIYIIRKDVDVYSQILRKLFNESHGIFVGLQKIEEELSGKSRKAQLVRVSKNYRSVIRACMEEMHQVAIAAKDPASGRQFSSQVSILSAMELIWNLCEILFIEVAPAGPLLLHLLDWVRLHVCEVDSLSADVLGGDNPSKHENFWDLVTVLVLQGRLDEARQMLAKEADANPSCAGMCRVLGDLMRTMPILSPGNTQTLTELELKWQHWREECERHLQDNTFAANPRLESLCKIMLGDEAALLEQKELLSNWYHFLVTRLLYSNPTVKPIDLHFYAQSSLDMFLGGESSPEPLDNILMAAFEFDIHQVIKECSIALSNWWFVAHLTDLLDHCRLLQSHNLYFGSNMREFLLLEYASGLFAHHSLWQLGVDYFDYCPELGRVSLELHIERIPLNTEQKALKVLRICEQRQMTEQVKSICKILAMKAVRNNRLGSALSWSIRAKDAAFATLVSDRFLRDYCERGCFSDLDLIDNLGSAMMLSDRLTFLGKYREFHRLYGEKRFGDAASLLLSLMTSQIAPRSFWMTLLTDALPLLEQKQVIFSAEQTYELMRCLEDLASGRPECGEPDAQRLQDDDIETTKVEMLRLALARNLARAIIREGSLEGS
